Measurements from patent publication US20230279089A1 (GlaxoSmithKline, published 2023).
Where “and” joins values, the source holds several entries; their conditions need not be identical. Identical values can stand only once.

What was measured:
[1] = molecular target: T1, Human BMP1-1 (human, UniProt P13497-2 121-730, limits assumed); experiment: cell-based or functional assay
T1 sequence (looked up): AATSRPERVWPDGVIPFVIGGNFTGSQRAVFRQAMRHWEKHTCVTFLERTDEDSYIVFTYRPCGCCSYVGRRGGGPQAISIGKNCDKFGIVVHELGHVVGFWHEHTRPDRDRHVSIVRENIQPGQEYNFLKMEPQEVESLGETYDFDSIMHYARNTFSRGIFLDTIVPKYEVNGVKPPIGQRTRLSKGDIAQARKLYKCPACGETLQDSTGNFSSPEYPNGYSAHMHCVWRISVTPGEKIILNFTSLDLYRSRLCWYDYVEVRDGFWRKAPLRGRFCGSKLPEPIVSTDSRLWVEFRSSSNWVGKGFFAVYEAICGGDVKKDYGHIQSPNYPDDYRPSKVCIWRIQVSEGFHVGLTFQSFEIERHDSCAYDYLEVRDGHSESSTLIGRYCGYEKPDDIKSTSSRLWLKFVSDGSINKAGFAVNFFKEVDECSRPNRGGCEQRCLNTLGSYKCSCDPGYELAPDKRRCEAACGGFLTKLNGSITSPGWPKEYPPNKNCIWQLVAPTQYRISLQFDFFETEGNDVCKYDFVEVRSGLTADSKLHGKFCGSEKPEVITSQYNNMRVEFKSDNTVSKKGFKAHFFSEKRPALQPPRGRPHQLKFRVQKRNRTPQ

[2] = molecular target: T2, Cyno TLL1 (cyno, UniProt A0A1D5QYV0 148-1013 (rhesus entry)); experiment: cell-based or functional assay
T2 sequence: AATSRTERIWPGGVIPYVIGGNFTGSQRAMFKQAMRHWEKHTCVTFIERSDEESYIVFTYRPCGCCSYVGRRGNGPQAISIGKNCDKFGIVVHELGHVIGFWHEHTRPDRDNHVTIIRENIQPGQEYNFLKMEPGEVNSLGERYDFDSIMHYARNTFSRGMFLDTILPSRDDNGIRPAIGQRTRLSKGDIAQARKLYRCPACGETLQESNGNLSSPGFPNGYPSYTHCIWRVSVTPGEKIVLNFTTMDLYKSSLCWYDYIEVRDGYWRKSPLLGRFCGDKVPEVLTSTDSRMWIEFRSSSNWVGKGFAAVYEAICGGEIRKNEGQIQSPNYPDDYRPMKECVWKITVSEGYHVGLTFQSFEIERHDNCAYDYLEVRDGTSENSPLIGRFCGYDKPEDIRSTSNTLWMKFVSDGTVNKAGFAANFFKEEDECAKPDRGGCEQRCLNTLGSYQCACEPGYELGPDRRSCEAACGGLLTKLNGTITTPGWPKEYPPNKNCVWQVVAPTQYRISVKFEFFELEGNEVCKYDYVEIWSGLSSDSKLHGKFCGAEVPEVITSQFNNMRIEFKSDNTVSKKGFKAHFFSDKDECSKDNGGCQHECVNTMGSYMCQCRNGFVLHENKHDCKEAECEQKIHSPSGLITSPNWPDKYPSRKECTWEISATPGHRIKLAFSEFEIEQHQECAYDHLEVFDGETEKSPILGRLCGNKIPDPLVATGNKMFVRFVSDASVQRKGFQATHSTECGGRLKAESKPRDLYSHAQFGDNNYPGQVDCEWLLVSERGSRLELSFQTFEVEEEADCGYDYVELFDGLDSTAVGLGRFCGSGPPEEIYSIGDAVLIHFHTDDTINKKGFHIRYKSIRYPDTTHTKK

[3] = molecular target: T3, Human BMP1 CD+CUB1 truncated antigen (human, UniProt P13497 121-434, limits assumed); experiment: SPR, mAb captured on protein A, HBS-EP
T3 construct: domain: CD+CUB1
T3 sequence (looked up): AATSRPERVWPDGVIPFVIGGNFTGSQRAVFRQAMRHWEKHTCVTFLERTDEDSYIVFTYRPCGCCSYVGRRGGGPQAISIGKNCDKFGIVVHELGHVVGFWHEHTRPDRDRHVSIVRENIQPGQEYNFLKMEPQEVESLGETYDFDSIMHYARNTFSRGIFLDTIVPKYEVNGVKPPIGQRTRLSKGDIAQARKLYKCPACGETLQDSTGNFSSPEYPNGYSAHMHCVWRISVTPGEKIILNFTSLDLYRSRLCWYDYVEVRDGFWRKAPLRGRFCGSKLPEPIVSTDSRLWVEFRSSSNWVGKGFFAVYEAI
Method: The 16 lead panel antibodies expressed in HEK cells were evaluated for binding to a truncated version of human BMP containing the catalytic domain and truncated domain (Human BMP1 CD+CUB1 truncated antigen) by SPR using BIACORE T200. HBS-EP+ buffer was used and the experiment run at 25° C. Protein A was immobilised to a CM5 sensor chip via amine coupling. The lead panel antibodies were captured onto protein A surface. Human BMP1 CD+CUB1 was then passed over the captured antibodies at various concentrations.

[4] = molecular target: T4, Rat TLL1 (rat, UniProt A0ABK0LNZ6 99-957); experiment: cell-based or functional assay
T4 sequence: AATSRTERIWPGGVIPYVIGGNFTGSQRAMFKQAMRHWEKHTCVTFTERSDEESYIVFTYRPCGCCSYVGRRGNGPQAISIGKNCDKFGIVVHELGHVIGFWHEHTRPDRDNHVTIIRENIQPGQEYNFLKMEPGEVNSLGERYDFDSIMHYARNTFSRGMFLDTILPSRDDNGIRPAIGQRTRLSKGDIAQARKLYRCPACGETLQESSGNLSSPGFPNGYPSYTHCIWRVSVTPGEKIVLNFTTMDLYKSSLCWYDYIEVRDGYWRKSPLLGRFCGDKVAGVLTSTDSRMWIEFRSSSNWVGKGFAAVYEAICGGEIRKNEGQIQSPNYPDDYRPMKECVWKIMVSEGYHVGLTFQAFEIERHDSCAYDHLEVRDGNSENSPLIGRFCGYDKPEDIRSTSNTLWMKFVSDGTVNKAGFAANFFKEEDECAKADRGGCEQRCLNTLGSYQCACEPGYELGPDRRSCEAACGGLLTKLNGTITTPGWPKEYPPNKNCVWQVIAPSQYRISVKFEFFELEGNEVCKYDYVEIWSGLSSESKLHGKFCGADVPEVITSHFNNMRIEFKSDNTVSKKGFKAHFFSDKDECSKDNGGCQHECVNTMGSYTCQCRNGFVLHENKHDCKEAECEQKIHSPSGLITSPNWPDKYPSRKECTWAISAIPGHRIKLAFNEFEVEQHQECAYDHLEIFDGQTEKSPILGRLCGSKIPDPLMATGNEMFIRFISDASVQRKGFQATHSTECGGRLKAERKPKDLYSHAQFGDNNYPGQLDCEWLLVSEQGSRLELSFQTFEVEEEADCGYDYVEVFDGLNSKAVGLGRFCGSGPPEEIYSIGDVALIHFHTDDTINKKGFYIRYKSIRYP

- IC50 (read off the curve) [1]: ~0.4 nM
- IC50, FRET enzyme activity, 750 pM biotinylated cynoTLL-1 [2]: 0.1 nM
- Kd [3]: 4.3 nM and 4.25 nM and 3.66 nM
- IC50 (read off the curve) [4]: ~0.9 nM
B1: 13Y039-3E07-2944 (antibody, human IgG1, kappa)
heavy: QVQLQQWGAGLLKPSETLSLTCAVYGGSFFGDYWSWIRQPPGKGLEWIGEIDWSGATNYNPSLKSRVTISVDTSKNQFSLKLSSVTAADTAVYYCARGGSKELSFDIWGQGTMVTVSS[gap - human IgG1 constant region with L235A G237A (EU numbers)]
light: DIQMTQSPSSLSASVGDRVTITCQASQDIANYLNWYQQKPGKAPKLLIYDASNLETGVPSRFSGSGSGTDFTFTISSLQPEDIATYYCQQADTLPFTFGGGTKVEIKRTVAAPSVFIFPPSDEQLKSGTASVVCLLNNFYPREAKVQWKVDNALQSGNSQESVTEQDSKDSTYSLSSTLTLSKADYEKHKVYACEVTHQGLSSPVTKSFNRGEC
notes: Fully human IgG1 LAGA, kappa; HEK expressed; also called HEK-expressed 13Y039-3E07-2944
